Results: the supplement of paper PMC11417369
± gives the standard deviation of the averaged measurements. The list shows a part of the results.

test system: PfAP2-G AP2 domain (GST-tagged); experiment: gcPBM binding intensity (ln(normalized median fluorescence intensity)); higher = stronger DNA binding
How it was run: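 After 1 h on an Agilent 4 × 180k array of primer-extended double-stranded 36-bp intergenic genomic probes and negative controls, bound GST-tagged P. falciparum DNA-binding domains were detected with Alexa488 anti-GST antibody and scanned at 488 nm. The domains had been expressed in E. coli, and binding took place in 1× PBS with 1% milk, 0.2 mg/ml BSA, 0.5% salmon testes DNA and 0.03% Triton X-100. Binding intensity is the highest Masliner-normalised natural-log median intensity across replicate spots of either probe orientation.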

Sequence | gcPBM binding intensity (ln)
ACTTATAATATTTAGTGTACATATTGTGACTAATAC [XGTACX_site1508] | 11.4 ± 0.69
TATCAAAAAAAAAGTAGTACGATAATAGTTTCCCAA [XGTACX_site1812] | 11.4 ± 0.79
AAAAACAATCATTTTAAATAAAAATCTCTAATTTAA [GTGCAC_negctrl_site138] | 9.61 ± 0.22
ATTTGTTCATTTGGTTGTACATAATTTATTTTTATA [XGTACX_site785] | 11.2 ± 0.69
TTTTCATTTTTTTTTTTTTTTTTTTTTCTTTTTTTT [CACACA_negctrl_site1312] | 9.52 ± 0.099
ATTTCTTTAATATACACACACCAAAACAAAAAAAAA [CACACA_site6416] | 10.3 ± 0.29
GTTGTGTAATTCGTAACACACATAAAATATATATAA [CACACA_site6059] | 10.2 ± 0.26
TTTTTAAAATATTTAACACACAATTTTAATGCATAA [CACACA_site6036] | 10.1 ± 0.26
AAAAAAATAAAACACACACACAAAAAAATAAAAATA [CACACA_site465] | 9.995 ± 0.007
ATATAGTTCGATATAGTTAGTATGAATTGAAAAATA [CACACA_negctrl_site1826] | 9.85 ± 0.042
ATGTGATAATTTAATAGTACATAACAGTTTAACAAT [XGTACX_site5854] | 11.1 ± 0.52
TCATAGCACAAAAAATGTACTTATTATTTAATATTT [XGTACX_site5687] | 11.1 ± 0.71
GTTTCCTTAATATTCACACACATATCTATAATATAT [CACACA_site6959] | 10.06 ± 0.014
ATAATAATTATATCAGTGCGCATATATATTTATTTA | 9.93 ± 0.085
TTATAATAAATATTTATTATATATAATATATATTAC [CACACA_negctrl_site1802] | 9.685 ± 0.007
TTTTTTATTAAATATATATAATAATAATAATTTGTA [CACACA_negctrl_site1719] | 9.54 ± 0.11
TTTGTTTTATGTGGTTGTACACAAATACAATTTAAA [XGTACX_site5156] | 11.6 ± 1.1
TTTATATGCAATTAAGTGCATAAGAAAAAAAAAGGA [GTGCAC_site9966] | 10.1 ± 0.22
CAAACAAATTGTGAAACACACATATTTATATTTATA [CACACA_site7030] | 9.76 ± 0.071
TTATAAAATAAACTTACACACATGAAATATTATAGT [CACACA_site7000] | 10.1 ± 0.13
CCTTACCAAATAATATGTACACATTTAATGTTATAT [XGTACX_site7840] | 11.5 ± 0.71
TATTATATATTATATAGTACATATTTATGTAAGAGG [XGTACX_site3099] | 10.9 ± 0.73

Sequence | gcPBM binding intensity (ln)
ATTTAATAACGGCATGCATGTCCTTATATAAATTTA [TGCATGCA_site1012] | 10.4 ± 0.28
TGAATTGTAATTTATAATATACGTGGTTTCTACTTA [CACACA_negctrl_site559] | 9.98 ± 0.26
CAAAAATAAATATAAACACACAATAAATAAATAAAT [CACACA_site891] | 9.74 ± 0.057
TATCAGTATACAACAACACACATAATGTTTGTCATC [CACACA_site2980] | 9.96 ± 0.057
CACTTAAAAAAAATACGTACACATATATATATATAT [XGTACX_site2054] | 11.5 ± 0.87
GTATTAATTTATATATGTACATATGTGATATATATA [XGTACX_site5825] | 11 ± 0.54
ATGGTATCTTTTAGAAGTACATCATGATAATAATTT [XGTACX_site5544] | 11.7 ± 0.91
GATCATAATATTTAAAAGAATATATATAAAAAGGAA [XGTACX_negctrl_site310] | 9.77 ± 0.23
TATAAAAATATATGCACACAAATAAAAAATTATATA [CACACA_site3629] | 9.99 ± 0.22
TATATTTATACAATATGTACATATTATATATATATA [XGTACX_site3098] | 11 ± 0.59
CAAAATTAATAAGTCACACACACATATATAATATAT [CACACA_site798] | 10.12 ± 0.035
AAAAATAGGAACCAATATCCAACGTGACTTTATAAT [CACACA_negctrl_site1011] | 10.3 ± 0.18
ATTTTTTTTTTTTTTTTTTTTTTTTTTTGATTTGTG [CACACA_negctrl_site1391] | 9.88
TCTACAATTATAATTACACACTATAAAAAAGAAAGA [CACACA_site2984] | 10 ± 0.18
AAAAAATTTTTAAGCACACACATAGATAATATATAT [CACACA_site1555] | 10.2 ± 0.014
GGAAAAAAAAAAAAAAAACACACGGTACATTCAAAC [CACACA_site2715] | 10.5 ± 0.23
AAAATAATTATGAATTGTACAGGTTTTTTTTTTTTT [XGTACX_site220] | 10.8 ± 0.48
AAAATTTTTCTTAAAGCATGCACAATTAAGAAGACG [TGCATGCA_site883] | 10.2 ± 0.13
TTTTTTTTAAGAGATAGTACATAAATATTATAATAT [XGTACX_site4685] | 11.1 ± 0.86
TTAAAATTAATTCACCAGTATTAAAATAAAAACGAA [CACACA_negctrl_site1428] | 10.1 ± 0.24
AAATAAAATTTTATGTGTACGCAAAAAGTTGTAAGC [XGTACX_site8911] | 11.9 ± 1.3
ATGGTTTAGTTATATACACACTCGAAAATAACGACA [CACACA_site7520] | 10.2 ± 0.19

Sequence | gcPBM binding intensity (ln)
TATAAAAATATATTTACACACTATATATATCGAAAG [CACACA_site1700] | 9.92 ± 0.057
ATATATTTTCAAAAAAGTAAATCAAAATAAATATAT [TGCATGCA_negctrl_site319] | 9.84 ± 0.085
TCCAAATACAACTACACACAAACAAAAATTATATAT [CACACA_site881] | 9.99 ± 0.23
AATAAATAAATATATACACACATATATATATAATAT [CACACA_site921] | 9.77 ± 0.028
TGAAAAAATATAAAATATAAAATAAAAAATATAAAA [GTGCAC_negctrl_site536] | 9.555 ± 0.007
TACAATCTAAAATACACACACACAAACATATATTTA [CACACA_site3702] | 10
AAGATATATATAGAAAGTACTTATATTTGTATAATT [XGTACX_site8855] | 11 ± 0.51
ATATTAATATATATGTTTTATTACCATTTTATGTAT [CACACA_negctrl_site1761] | 9.855 ± 0.021
ATTATACAAAATGGTAAGGAAAAGGAAATTTTTTTT [CACACA_negctrl_site1090] | 9.77 ± 0.014
CAATATTATATATATACACACATAATCTGTAAAAAC [CACACA_site1068] | 10 ± 0.13
AAAGTAGGCTTATATGCACACTTTGAAATATTATAA [CACACA_site5117] | 9.86 ± 0.057
CATATATATATATATACACACATATATATTTTCTTT [CACACA_site1457] | 9.79 ± 0.16
AAAAAAAAAAATATCACACACACATAAATATAAACA [CACACA_site7138] | 9.95 ± 0.057
TATATATATCAGCAATGTACACAATGCATATTATAT [XGTACX_site4836] | 10.9 ± 0.6
ATAAAAATTGATTATACACACGCGCACCCACAACAA [CACACA_site3536] | 10.8 ± 0.54
TATTTATAAATTTACACACACACATGGGAACATAAA [CACACA_site5111] | 10.6 ± 0.3
ATGTCAAATTTTTGTGCACACATATATAGTTATTAT [CACACA_site2242] | 10.6 ± 0.31
TTATTTTATTTTAAAAAAAACAATATAAATTCAAAG [GTGCAC_negctrl_site57] | 9.725 ± 0.021
AATGTAAAAGTAAACACACACATATATATATACATA [CACACA_site2484] | 9.985 ± 0.049
TATAAAAATAAAAAAAGTACACATAAAAATATATAT [XGTACX_site5189] | 11.5 ± 0.78
GTATCTCATTATTCGTGTACTAAACACATAAAAATA [XGTACX_site2262] | 11.2 ± 0.88
ATCTATATCTATAATACACACTAAAGTAACAGAATA [CACACA_site7370] | 10.1 ± 0.18

Sequence | gcPBM binding intensity (ln)
GATTTACAACACGAACGTACAGAACAAAAAGGAAAA [XGTACX_site6501] | 11.2 ± 0.71
TGTTTAAAGGAAAAGGAGTAGTCTATTATATTATCT [CACACA_negctrl_site858] | 9.9 ± 0.11
ATACACATATATGTGTGTACTCACCTTTTAATATGA [XGTACX_site4349] | 11.5 ± 1
TATTGTATTTAATAAACACACAATATTAAAAATATA [CACACA_site4725] | 9.91 ± 0.16
CATATATACACATACACACACACACGGACACGCACA [CACACA_site6910] | 11.1 ± 0.76
ATATAATGTTATAGAAGTACATGAAATACTTATTTA [XGTACX_site8850] | 11.3 ± 0.95
TTTAATTTGTTATACACACACAAAAAAAGTTATAAA [CACACA_site7779] | 10.1 ± 0.18
TCTTTCTTATATTTATATAATTATATTTATTTTATA [GTGCAC_negctrl_site300] | 9.685 ± 0.035
GGAATACAGGAAAAAAGTACAGAAAATGGAATATTA [XGTACX_site5053] | 11.5 ± 0.96
AACATTTATAAATATTGTACATATAGATTTATATAT [XGTACX_site2662] | 10.9 ± 0.59
AAAATAAAATAACGTTGTACAACATCATTTCTATAT [XGTACX_site5080] | 11.3 ± 0.74
AACAATATATTGAATAGTACATATATATAAACATAT [XGTACX_site2811] | 11 ± 0.7
TATAAATATTACGGTAGTACTATACATATATATAAT [XGTACX_site7442] | 11.1 ± 0.62
TTAGAAACATTGAAAGCATGCAATATTACTTTATAC [TGCATGCA_site522] | 9.81 ± 0.099
TCCTTATATTTGCACACACACACAAGAAAATGAAAA [CACACA_site6613] | 10.5 ± 0.52
TTTTTTTTTCCCGTAAATATTGAGACAACCATAATG [CACACA_negctrl_site41] | 10.6 ± 0.54
TATTTTTATTTAGGACGTACAAAAATAAATCATATT [XGTACX_site1448] | 11.6 ± 0.64
TTAAAAATATATATAACACACACATAATATATATAT [CACACA_site8811] | 9.96 ± 0.23
CATATAAAAAGACACACACACACATATATATATATA [CACACA_site940] | 10.5 ± 0.77
CAGGAGAGTAAAAGAGTGCGAATTATTATTTTGGAG | 9.75 ± 0.2
GGCATATATATATGCACACATACATAAATACATGTG [CACACA_site5999] | 10.4 ± 0.26
AGACATTAATGAAGGTGTACATATATTTGACAGAAT [XGTACX_site655] | 11.6 ± 1
